Measurements from PMC4336329 (PLoS ONE, 2015).
Hit rate of the full screen: of about 310,000 compounds, about 2,200 (0.71%) showed an effect of 50% or more. The effect is printed as a negative number. The list shows a part of the results.

The compounds below were run against human ether-à-go-go-related gene (hERG) potassium channel (human, UniProt Q12809) (assay: primary screen, population patch clamp on CHO cells stably expressing hERG).
Chain of human ether-à-go-go-related gene (hERG) potassium channel (Q12809 whole entry, looked up): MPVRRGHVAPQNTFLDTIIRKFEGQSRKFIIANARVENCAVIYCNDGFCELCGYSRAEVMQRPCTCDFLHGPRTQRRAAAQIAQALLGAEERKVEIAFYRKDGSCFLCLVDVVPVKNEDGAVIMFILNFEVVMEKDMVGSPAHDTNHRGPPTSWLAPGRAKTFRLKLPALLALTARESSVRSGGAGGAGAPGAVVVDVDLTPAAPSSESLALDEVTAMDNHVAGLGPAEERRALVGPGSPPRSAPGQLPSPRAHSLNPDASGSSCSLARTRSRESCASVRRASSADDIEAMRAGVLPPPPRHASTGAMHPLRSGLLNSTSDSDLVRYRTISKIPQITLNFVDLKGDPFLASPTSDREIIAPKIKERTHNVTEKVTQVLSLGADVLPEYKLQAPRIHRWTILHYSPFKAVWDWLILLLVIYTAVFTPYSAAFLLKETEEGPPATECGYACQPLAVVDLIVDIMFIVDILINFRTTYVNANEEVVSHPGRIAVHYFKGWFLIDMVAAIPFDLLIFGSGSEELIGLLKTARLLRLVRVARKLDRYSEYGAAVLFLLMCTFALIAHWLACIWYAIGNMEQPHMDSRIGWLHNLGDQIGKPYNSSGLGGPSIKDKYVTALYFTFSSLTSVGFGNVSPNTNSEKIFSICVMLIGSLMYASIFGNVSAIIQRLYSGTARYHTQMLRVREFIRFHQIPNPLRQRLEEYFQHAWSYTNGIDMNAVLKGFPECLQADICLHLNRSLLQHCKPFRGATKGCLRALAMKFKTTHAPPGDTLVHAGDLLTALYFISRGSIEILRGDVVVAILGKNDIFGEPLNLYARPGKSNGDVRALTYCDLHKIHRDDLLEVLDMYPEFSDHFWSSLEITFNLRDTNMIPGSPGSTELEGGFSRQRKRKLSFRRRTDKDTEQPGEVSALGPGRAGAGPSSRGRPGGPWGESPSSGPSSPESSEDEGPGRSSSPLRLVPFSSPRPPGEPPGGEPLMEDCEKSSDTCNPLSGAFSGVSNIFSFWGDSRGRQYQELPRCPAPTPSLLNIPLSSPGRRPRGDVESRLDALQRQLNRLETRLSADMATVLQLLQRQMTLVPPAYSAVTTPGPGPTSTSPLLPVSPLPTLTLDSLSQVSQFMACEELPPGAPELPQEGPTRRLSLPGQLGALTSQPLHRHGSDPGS

SMILES	hERG current change (%, negative = inhibition) at 1uM [%]
CCc1n[nH]c2c1/C(=N/O)CCC2	-3.49
OC1(c2cccs2)CN(c2ccc(Cl)cc2)C2=[N+]1CCCC2.[Br-] (stereo not shown)	-13.7
CC1CCCN(C(=O)Cn2c(=O)oc3cc(S(=O)(=O)N4CCCCC4)ccc32)C1 (stereo not shown)	9.18
CSc1nc2ccc(NS(=O)(=O)c3ccc(Br)s3)cc2s1	15.9
COc1ccccc1CNC(=O)CSc1nnc2c(Cl)cc(C(F)(F)F)cn12	3.91
Cc1ccc(CNC(=O)CCCc2c[nH]c3ccccc23)cc1	3.99
O=C(CCN1C(=O)c2ccccc2S1(=O)=O)Nc1ccc2c(c1)OCCO2	14.9
O=C1c2ccccc2C2(c3cc(C(F)(F)F)cc(C(F)(F)F)c3)NCCN12 (stereo not shown)	14.2
CN1C(C(=O)NCCc2cccs2)CC2Cn3c(nc4cc(Cl)c(Cl)cc43)C21 (stereo not shown)	-11.5
CCOc1ccc(S(=O)(=O)NCCCn2ccnc2)cc1NC(C)=O	5.15
S=C(NCCN1CCOCC1)N/N=C/c1cccs1	9.94
CC(=O)c1ccc(NC(=O)CSc2nnc(NC(=O)c3ccco3)s2)cc1	-10.7
COC(=O)c1cc(NC(=O)c2cc(C(C)(C)C)nn2Cc2cccc(C)c2)ccc1N1CCOCC1	12.4
O=C(NCCc1ccccc1)C1CCN(C(=O)c2ccc([N+](=O)[O-])cc2)CC1	-21.5
O=C(CCC(=O)OCC(F)(F)C(F)F)Nc1ccc(Cl)cc1	-6.83
CC(C)(C)C(=O)c1cn(CC(=O)O)c2ccccc12	10
N/C(=N\OC(=O)Cc1ccc(-c2ccccc2)cc1)c1cccc([N+](=O)[O-])c1	14.6
COc1ccc(C(CNC(=O)c2oc3ccc(F)cc3c2C)N2CCCCC2)cc1 (stereo not shown)	2.33
CC(C)C(C(=O)C=[N+]=[N-])N1C(=O)c2ccccc2C1=O (stereo not shown)	11.2
CCC12CN(C(=O)c3ccc([N+](=O)[O-])cc3)CC(CC)(CN(C(=O)c3ccc([N+](=O)[O-])cc3)C1)C2=O	13.5
CNC(=O)CSc1nc2cccnc2n1-c1ccc(F)cc1	10.4
OCCNc1nc(OCC(F)(F)F)nc(N2CCN(C34CC5CC(CC(C5)C3)C4)CC2)n1	-13.2

SMILES	hERG current change (%, negative = inhibition) at 1uM [%]
O=C(NCCS(=O)(=O)NCC1CCCO1)c1ccccc1 (stereo not shown)	12.7
CCOc1ccc(NC(=O)CSc2ccc3nnc(-c4ccccn4)n3n2)cc1	-11.7
O=C(Cc1ccccc1)NS(=O)(=O)c1ccc(N=NN2CCOCC2)cc1	17.5
CS(=O)(=O)c1cnc(-c2ccccc2)nc1Oc1ccc(F)cc1	7.69
Cc1cccc(C)c1NC(=O)CNC(=O)CCC(=O)N1CCOCC1	15.3
CC(=O)c1ccc(-n2c(-c3cc(-c4ccco4)[nH]n3)n[nH]c2=S)cc1	8.3
O=C(COC(=O)c1ccco1)c1ccc(Cl)cc1	18.3
CC(Sc1nc(-c2ccccc2)cc(C(F)(F)F)n1)C(=O)N1CCCC1 (stereo not shown)	12.9
O=c1c(Cc2ccc(F)cc2)c(O)ccn1CCCN1CCOCC1	19
O=C(c1ccccc1)c1cccc[n+]1[O-]	16.8
CCOc1cc(/C=N/Nc2nc(-c3cccc(S(=O)(=O)N4CCCC4)c3)cs2)ccc1O	8.88
CC1CCN(S(=O)(=O)c2ccc(NC(=O)N3c4ccccc4Sc4ccccc43)cc2)CC1	13.1
Cc1ccc(-c2nnc(-c3ccc(NC(=O)c4ccco4)cc3)o2)cc1	14.3
O=C(OCC(=O)N1CCCc2ccccc21)c1cncc(Br)c1	-3.78
Cc1ccccc1OCc1nc(-c2ccc(NC(=O)c3ccco3)cc2)no1	7.14
CC1CCN(C(=O)Nc2ccc3nsnc3c2)CC1	14
Cc1nn2c(N3CCCC3)c3c(nc2c1-c1ccccc1)CCC3	10.8
COc1ccccc1CN(C)CC(=O)Nc1ccc(Cl)cc1F	13.8
O=C(Nc1cccc(C(=O)N2CCN(c3ccccc3)CC2)c1)c1ccco1	8.21
O=C(O)CCc1ccc(-c2cccs2)o1	11.8
CCCn1nnc(NC(=O)COc2ccc(Cl)cc2)n1	6.25
COc1ccc(NC(=O)CCCSc2ccccc2)cc1	10.8

SMILES	hERG current change (%, negative = inhibition) at 1uM [%]
CCOc1ccc(NC(=S)NNc2ccnc3cc(Cl)ccc23)cc1	15.1
CCOc1ccccc1NC1=NCC(=O)N1Cc1ccc(F)cc1	5.09
CC(c1ccc(F)cc1)n1cc(C(=O)NCc2ccc3c(c2)OCO3)nn1 (stereo not shown)	8.22
COc1ccc(NC(=O)/C=C/c2ccc(C)o2)cc1S(=O)(=O)N1CCOCC1	3.88
CC1CCN(C2CC(=O)N(c3ccc(Br)cc3Br)C2=O)CC1 (stereo not shown)	12.5
CN(C)S(=O)(=O)n1cc(/C=C(\NC(=O)c2ccccc2Cl)C(=O)NCCN2CCOCC2)c2ccccc21	9.04
COc1cc(Br)c(/C=C/c2ccc3cccc(O)c3n2)cc1OC	13.4
COc1ccc(NCC(=O)N/N=C/C=C/c2ccccc2[N+](=O)[O-])cc1	8.16
Cc1ccsc1C(=O)OCC(=O)Nc1nnc(-c2ccccc2)o1	11.9
CCC(C(=O)NC1CCCCCC1)n1nc(C)n2c(cc3occc32)c1=O (stereo not shown)	-16.8
COc1ccc(CC2C(=O)OC(C)(C)OC2=O)c(Cl)c1OC	15.4
CCOC(=O)N1CCN(C(=O)/C(=C/c2ccc(OC)c(OC)c2)NC(=O)c2ccccc2)CC1	6.89
CCOc1cc(N2CCOCC2)c(OCC)cc1NC(=O)c1ccc(C)s1	-1.15
CCOc1ccccc1N1CCN(C(=O)c2cc(-c3cc(OC)ccc3OC)nc3ccccc23)CC1	8.96
Cc1nn(Cc2noc(C(=O)NCc3ccc(F)cc3)n2)c(C)c1Br	9.1
Cc1ccc(S(=O)(=O)N2CCOCC2)c2nsnc12	2.18
Nc1ccc(-c2c3ccc(=O)cc-3oc3cc(O)ccc23)cc1C(=O)O	5.51
CCOc1cc(C(=O)Nc2ccc(S(=O)(=O)N3CCCCC3)cc2)ccc1OCC(=O)N1CCOCC1	5.05
COc1ccc(Cl)cc1NC(=O)Cn1nnc(C(=O)NCc2ccc3c(c2)OCO3)c1N	7.91
CCOC(=O)C(=Cc1ccc(-n2cncn2)cc1)C(=O)OCC	9.18
Cc1ccc(C2=N/C(=C\c3c(C)nn(-c4ccccc4)c3N3CCCC3)C(=O)O2)cc1	9.33
Cc1ccc(CNC(=O)CSc2nc3ccsc3c(=O)n2Cc2ccccn2)cc1	7.72

SMILES	hERG current change (%, negative = inhibition) at 1uM [%]
CCOC(=O)c1cc(C)nc(N2CCCCC2)c1C#N	11.3
Cc1ccc(C(=O)COC(=O)CNS(=O)(=O)c2ccccc2)cc1[N+](=O)[O-]	6.72
CC(C)CCCNc1nc(N2CCOCC2)nc(N2CCOCC2)n1	10.3
CCOc1ccc(N(C)S(=O)(=O)c2c[nH]c(C(=O)OC)c2)cc1	6.59
Cc1ccc(NC(=O)C2CCCN(c3ncccn3)C2)cc1F (stereo not shown)	3.69
CC(C)c1nnc(NC(=O)CCC(=O)NCCc2ccccc2)s1	11.3
O=S(=O)(c1cccs1)N1CCN(S(=O)(=O)c2cccs2)CC1	5.93
COc1ccc([C@H]2[C@@H](C#N)[C@H](C#N)N3CCCN23)cc1	14.3
COc1cc(NS(=O)(=O)c2ccc(-c3ccc(=O)[nH]n3)o2)cc(OC)c1OC	-6.48
O=C(Nc1ccccc1C(F)(F)F)C1CC(=O)N(c2ccccc2F)C1 (stereo not shown)	-1.34
CCOc1ccccc1OCCCC(=O)NCCc1ccc(S(N)(=O)=O)cc1	10.8
Cc1cccc(NC(=O)c2ccccc2OCC(=O)N2CCCC2)c1C	11.3
CCCOC(=O)c1ccc(NC(=O)C(CC)CC)cc1	7.53
CCCN(CC(=O)Nc1ccccc1C)C(=O)CCl	11.5
CCCCSCCCNC(=O)c1ccc(CS(=O)(=O)c2ccc(OC)cc2)o1	-5.71
CC1(C)Cc2c(cnn2-c2cccc(F)c2)C(NC(=O)CCc2cnccn2)C1 (stereo not shown)	5.43
C[C@H](NC(=O)c1ccccc1Cl)C(=O)Nc1ccccc1F	0.909
COCCn1c(SCC(=O)N(C)c2c(N)n(Cc3ccccc3)c(=O)[nH]c2=O)nnc1-c1cccc(C)c1	21.2
CCOc1ccc(/C=N/NC(=O)c2cc(-c3ccco3)nc3ccccc23)cc1	4.76
CC(C)c1ccccc1	9.15
CN1CCSc2ccc(C(=O)NCc3cccc(Br)c3)cc21	11.7
CCCn1nc(C(=O)OCC(=O)c2ccc3c(c2)NC(=O)CO3)c2ccccc2c1=O	-2.27
